Laboratory results published in PubChem BioAssay AID588334 (Broad Institute, 2011).
Among all 300,000 compounds or so, about 2,300 (0.77%) were called active. The shares of active, inactive and inconclusive entries below differ from those in the screen.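 Rule for the calls: active = mean activation of at least 80% with every replicate also reaching 80%; inconclusive = mean reaches 80% but some replicate falls short; inactive = the rest.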

Assay: MITF-driven TRPM1 luciferase induction in melanoma cells – cell-based, SK-MEL-5, single point, primary screen (AID 588334);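 note: 0% = neutral control wells and 100% = parthenolide positive control wells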
Conditions: SK-MEL-5 TRPM1-promoter luciferase, 24 h; at 12.5 µM; active compounds read high; % of positive control, neutral wells = 0

Row | Compound | activation
1 | COc1cc(OC)cc(C(=O)Nc2sc3c(c2C(N)=O)CCC3)c1 | inactive: 52%
2 | CCC(C)NC(=O)c1cn(-c2cccc(C)n2)cn1 (centres undefined) | inconclusive: 81.7%
3 | COc1c2ccoc2nc2c(OC)c(OC[C@@H](O)C(C)(C)O)ccc12 | inactive: 2.02%
4 | Fc1cccc(-c2cc3nc4c(c(N5CCOCC5)n3n2)CCCC4)c1 | inconclusive: 93%
5 | O=c1[nH]c(=O)n([C@H]2C[C@H](O)[C@@H](CO)O2)cc1C(F)(F)F | inactive: -7.91%
6 | O=C(CCCc1ccccn1)c1ccc(-c2ccccc2)cc1 | inconclusive: 81.4%
7 | O=CNC1c2ccccc2CCc2ccccc21 | inactive: 6.45%
8 | COc1cc(C)ccc1OCC(=O)NC1CCCCCC1 | inconclusive: 80.8%
9 | COc1ccc2c(c1)CC/C(=C\Nc1ccc3c(c1)OCO3)C2=O | inconclusive: 80.8%
10 | O=C(Nc1nccs1)c1ccc(CSc2ccccc2)o1 | inconclusive: 83.9%
11 | CCC1CCCN1Cn1cnc2c([nH]c3ccc(Cl)cc32)c1=O (centres undefined) | inactive: 13.3%
12 | Cc1ccc2nc(-c3cccc(S(=O)(=O)N(C)C)c3)cn2c1 | inconclusive: 81.5%
13 | CN(C(=O)CSc1nc2ccccc2o1)C1CCCCC1 | inconclusive: 89.1%
14 | Cc1cc(O)c(C=Nc2ccc(Cl)cn2)c(=O)o1 | inactive: -11.9%
15 | CCOC(=O)c1c(C)[nH]c(C(=O)COC(=O)C2CC2)c1C | active: 85.6%
16 | Cc1sc(=NC(=O)c2ccco2)n(C)c1-c1ccc(Cl)cc1 | inconclusive: 82.9%
17 | CCOC(=O)C1=C(C)NC(C)=C(C(=O)OCC)C1C(=O)OCC(=O)N1CCCCC1C (centres undefined) | inactive: 2.99%
18 | O=C(Oc1ccc2ccccc2c1Cl)N1CCCCCC1 | inconclusive: 87.2%
19 | C/C(=N/NC(=O)c1ccc2c(c1)OCO2)c1cccc([N+](=O)[O-])c1 | active: 126%
20 | COc1ccc2[nH]cc(/C=C/C(=O)c3ccccc3)c2c1 | inconclusive: 88.9%
21 | COc1ccc(C(=O)NC(=S)NC(C)(C)C)cc1Br | inactive: 47.6%
22 | COc1cc2c(cc1NC(=O)c1cc(-c3ccccn3)nc3ccccc13)oc1ccccc12 | inconclusive: 80.6%

Row | Compound | activation
23 | CCOc1ccc2oc(C(=O)Nc3cc(C)ccn3)c(C)c2c1 | inconclusive: 90%
24 | Oc1ccc(/C=N/Nc2cccc(Cl)n2)c(O)c1 | active: 109%
25 | O=C(N/N=C/c1ccccn1)c1ccc(NC(=O)c2ccccc2Cl)cc1 | inactive: -8.63%
26 | O=C(Nc1ccc(Cl)c(C(F)(F)F)c1)c1ccncc1 | inactive: 6.02%
27 | Cn1nnc2cc(C(=O)Nc3ccc4ccccc4c3)ccc21 | inconclusive: 80.9%
28 | Cc1cc(C)c2c(=O)n(CC(=O)Nc3cccc(Cl)c3C)sc2n1 | inactive: -3.58%
29 | CCOc1ccc(-c2cc(C(=O)N/N=C(\C)c3cccnc3)c3ccccc3n2)cc1 | active: 88%
30 | COc1ccc2c(C)cc(N3CCN(Cc4ccccc4)CC3)nc2c1 | inactive: 7.78%
31 | O=C(NCC1CCCO1)Nc1ccc(Cl)cc1 (centres undefined) | inactive: 42.6%
32 | CCC(=O)Nc1ccc2oc(-c3ccccc3Br)nc2c1 | active: 130%
33 | CN(CC(=O)Nc1ccccc1Br)C(=O)c1cc2c(s1)CCCCC2 | inconclusive: 93.1%
34 | O=C(OC1CCCCC1)c1cc2ccccc2oc1=O | inconclusive: 84.7%
35 | Nc1ccc2oc(=O)c3ccccc3c2c1 | inconclusive: 81.3%
36 | Nc1ccc(-c2nc3ncccc3o2)c(O)c1 | active: 95.1%
37 | Cc1ccc2cc(/C=N/Nc3ccc(C(=O)O)cc3)c(Cl)nc2c1 | active: 99.2%
38 | N#Cc1c(N)nc2c(c1N)CC(COc1ccccc1)O2 (centres undefined) | inconclusive: 80%
39 | CCOc1ccc(C(=O)NC(=S)Nc2ccccn2)cc1[N+](=O)[O-] | inconclusive: 80.7%
40 | COc1cccc(NC(=O)c2csc3c2CCCC3)c1 | active: 95.1%
41 | O=C(COc1ccc([N+](=O)[O-])cc1)NNC(=O)Nc1ccc([N+](=O)[O-])cc1 | inactive: -7.72%
42 | CN(N=O)c1ccc(CC2CCc3ccccc32)cc1 (centres undefined) | inconclusive: 80.9%
43 | O=C(/C=C/c1ccccc1)Nc1cccc(C(=O)NCCc2ccccc2)c1 | inconclusive: 83.6%
44 | O=C(Cc1ccc2c(c1)OCCO2)c1c(O)cc(O)cc1O | inactive: 39.4%

Row | Compound | activation
45 | O=C(Nc1cccc(Cl)c1)Nc1nnc(-c2ccncc2)s1 | inactive: 5.24%
46 | O=C(Nc1ccccc1Br)c1cc(=O)c2ccccc2o1 | active: 152%
47 | CC(C)COC(=O)c1ccc(NC(=O)C2C3C=CC(C3)C2C(=O)O)cc1 (centres undefined) | active: 105%
48 | CC(=O)/C(=C(/O)c1ccccc1)c1nc2ccccc2[nH]1 | active: 85%
49 | Cc1cc(C(=O)Nc2nnc(C3CC3)s2)c(C)s1 | inconclusive: 81.6%
50 | CCOc1cc2c(C#N)c(N3CCCC3)nc(N)c2c(N)n1 | inactive: 14.4%
51 | CCCN=Cc1sc2ccc(OCC)cc2c1O | active: 101%
52 | CN(C)/C=C(/C(=O)c1ccc(Cl)cc1)S(=O)(=O)c1ccccc1 | inconclusive: 83.4%
53 | CN(C)/C=N/c1cnc(C(=O)c2ccc(Cl)cc2)n1C | inconclusive: 84.3%
54 | CC(=O)N(C)c1ccc(NC(=O)/C=C/c2ccccc2Cl)cc1 | inconclusive: 87.4%
55 | Clc1ccc(-c2nnc(CCc3ccccc3)o2)c(Cl)c1 | inconclusive: 84.5%
56 | O=C(O)/C=C/C(=O)Nc1ccc(Oc2ccccc2)cc1 | inactive: 10.5%
57 | NC(=O)C1CCN(Cc2ccc(OCc3ccccc3)cc2)CC1 | inconclusive: 82%
58 | CCOC(=O)c1cnc(SCCc2ccccc2)nc1N | active: 94.6%
59 | Cc1ccc2nc(-c3ccc(SCC(=O)Nc4cc(C)on4)nc3)[nH]c2c1 | inconclusive: 80.3%
60 | c1ccc2nc(-c3nccs3)ccc2c1 | active: 90.8%
61 | O=C(Nc1ccc2ccccc2n1)c1ccccc1Br | inactive: 26%
62 | Cc1cc(NC(=O)COc2ccc(C)c(C)c2)no1 | active: 90.1%
63 | CCS(=O)(=O)N1CCc2nc(-c3ccccc3)sc2C1 | active: 121%
64 | Cc1ccc(/C=N/Nc2ccc(F)cc2F)s1 | inconclusive: 85.5%
